For experiment [1], the target named is T1, human CEACAM5 (carcinoembryonic antigen, CEA) on cells (human, UniProt P06731 35-685).
T1 construct: endogenous on MKN45 gastric adenocarcinoma cells; full-length cDNA stably transfected in the CHO-K1 clones; also called huCEACAM5; MKN45 cells
T1 sequence: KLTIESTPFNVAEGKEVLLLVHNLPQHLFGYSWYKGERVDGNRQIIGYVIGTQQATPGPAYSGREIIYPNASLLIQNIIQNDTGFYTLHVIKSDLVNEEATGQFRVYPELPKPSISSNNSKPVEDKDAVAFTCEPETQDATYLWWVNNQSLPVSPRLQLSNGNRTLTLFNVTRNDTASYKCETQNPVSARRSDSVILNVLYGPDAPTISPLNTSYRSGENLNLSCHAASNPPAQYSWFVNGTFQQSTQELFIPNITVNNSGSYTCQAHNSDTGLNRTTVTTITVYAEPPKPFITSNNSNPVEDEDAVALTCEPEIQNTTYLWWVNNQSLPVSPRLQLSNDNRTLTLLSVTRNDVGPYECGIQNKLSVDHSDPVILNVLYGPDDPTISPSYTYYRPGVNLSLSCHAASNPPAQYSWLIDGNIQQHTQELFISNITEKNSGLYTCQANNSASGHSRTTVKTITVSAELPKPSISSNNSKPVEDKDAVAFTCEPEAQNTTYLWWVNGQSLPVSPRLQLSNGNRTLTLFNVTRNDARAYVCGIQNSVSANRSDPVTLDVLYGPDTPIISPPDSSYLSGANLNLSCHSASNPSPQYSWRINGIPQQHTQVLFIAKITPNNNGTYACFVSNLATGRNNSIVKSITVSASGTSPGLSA
The experiment in a line: flow cytometry, CHO-k1-huCEACAM5 clone 12. For orientation: In flow cytometry, cells or beads pass a laser one at a time.

In another experiment the target is T2, hu N(A2-B2)A-avi-His (human, biotin on the avi tag where used biotinylated).
T2 construct: chimeric soluble antigen; also called hu N(A2-B2)A-avi-His B; human CEA (A2 domain)
T2 chain: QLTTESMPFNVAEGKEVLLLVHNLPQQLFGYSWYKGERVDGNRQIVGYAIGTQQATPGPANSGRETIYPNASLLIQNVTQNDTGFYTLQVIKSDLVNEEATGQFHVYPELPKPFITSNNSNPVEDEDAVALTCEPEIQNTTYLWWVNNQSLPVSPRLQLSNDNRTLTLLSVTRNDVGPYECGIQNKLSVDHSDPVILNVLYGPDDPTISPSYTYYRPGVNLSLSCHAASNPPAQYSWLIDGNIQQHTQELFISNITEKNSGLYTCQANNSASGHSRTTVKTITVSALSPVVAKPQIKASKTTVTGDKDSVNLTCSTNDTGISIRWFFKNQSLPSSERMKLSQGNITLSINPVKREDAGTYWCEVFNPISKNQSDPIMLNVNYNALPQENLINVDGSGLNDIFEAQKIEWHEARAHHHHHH
The experiment in a line: SPR (Biacore T200), huN(A2-B2)A immobilised on a CM5 chip, construct injected as analyte 1. On the procedure:
All SPR experiments were performed on a Biacore T200 at 25° C. with HBS-EP as running buffer (0.01 M HEPES pH 7.4, 0.15 M NaCl, 3 mM EDTA, 0.005% Surfactant P20, Biacore, Freiburg/Germany).
Bulk refractive index differences were corrected for by subtracting the response obtained in a reference flow cell, where no protein was immobilized.
A general note: Surface plasmon resonance follows binding to a sensor surface in real time, without labels.

In experiment [2] the target is T1, human CEACAM5 (carcinoembryonic …). In words: cell-based or functional assay. Also on record: AUC of activation curve, Jurkat-hu4-1BB-NFκB-luc2, no CEA+ cells / AUC of activation curve, Jurkat-hu4-1BB-NFκB-luc2 with CHO-k1-cyno CEACAM5 clone 8: unit not given beside the values.
The target of experiment [3] is human 4-1BB on Jurkat-hu4-1BB-NFκB-luc2 reporter cells (human, UniProt Q07011 24-255). The experiment in a line: cell-based or functional assay. Also on record: AUC of activation curve, Jurkat-hu4-1BB-NFκB-luc2, no CEA+ cells / AUC of activation curve, Jurkat-hu4-1BB-NFκB-luc2 with CHO-k1-cyno CEACAM5 clone 8: unit not given beside the values.
Sequence of UniProt Q07011 (Q07011 24-255 limits assumed): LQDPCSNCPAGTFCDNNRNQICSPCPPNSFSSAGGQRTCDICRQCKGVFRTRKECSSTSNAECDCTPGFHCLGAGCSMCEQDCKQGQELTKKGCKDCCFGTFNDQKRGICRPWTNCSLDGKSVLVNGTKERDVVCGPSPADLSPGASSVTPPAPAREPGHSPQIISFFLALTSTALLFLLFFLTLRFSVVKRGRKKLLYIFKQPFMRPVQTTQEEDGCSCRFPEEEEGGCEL
The target in experiment [4] is T3, cynomolgus monkey CEACAM5 on CHO-k1-cynoCEACAM5 clone 8 cells (cynomolgus monkey). The experiment in a line: cell-based or functional assay. Also on record: AUC of activation curve, Jurkat-hu4-1BB-NFκB-luc2, no CEA+ cells / AUC of activation curve, Jurkat-hu4-1BB-NFκB-luc2 with CHO-k1-cyno CEACAM5 clone 8: unit not given beside the values.
The target in experiment [5] is T1, human CEACAM5 (carcinoembryonic …). In words: flow cytometry, CHO-k1-huCEACAM5 clone 11.
Experiment [6] shares this target. The experiment in a line: flow cytometry, CHO-k1-huCEACAM5 clone 11. Also on record: unit not given beside the values.
Experiment [7] has as its target T3, cynomolgus monkey CEACAM5 on …. The experiment in a line: flow cytometry, CHO-k1-cynoCEACAM5 clone 8.
Experiment [8] has the same target. In words: flow cytometry, CHO-k1-cynoCEACAM5 clone 8. Also on record: unit not given beside the values.
Experiment [9] concerns the target T1, human CEACAM5 (carcinoembryonic …). The experiment in a line: flow cytometry, CHO-k1-huCEACAM5 clone 12. Also on record: unit not given beside the values.
Experiment [10] shares this target. In words: cell-based or functional assay.
Experiment [11] concerns the target T3, cynomolgus monkey CEACAM5 on …. The experiment in a line: cell-based or functional assay.

What is called EC50 is the midpoint of the concentration-response curve.

B1: CEA(P005.102)-4-1BBL (Fc fusion)
chain 1: REGPELSPDDPAGLLDLRQGMFAQLVAQNVLLIDGPLSWYSDPGLAGVSLTGGLSYKEDTKELVVAKAGVYYVFFQLELRRVVAGEGSGSVSLALHLQPLRSAAGAAALALTVDLPPASSEARNSAFGFQGRLLHLSAGQRLGVHLHTEARARHAWQLTQGATVLGLFRVTPEIPAGLGGGGSGGGGSREGPELSPDDPAGLLDLRQGMFAQLVAQNVLLIDGPLSWYSDPGLAGVSLTGGLSYKEDTKELVVAKAGVYYVFFQLELRRVVAGEGSGSVSLALHLQPLRSAAGAAALALTVDLPPASSEARNSAFGFQGRLLHLSAGQRLGVHLHTEARARHAWQLTQGATVLGLFRVTPEIPAGLGGGGSGGGGSRTVAAPSVFIFPPSDRKLKSGTASVVCLLNNFYPREAKVQWKVDNALQSGNSQESVTEQDSKDSTYSLSSTLTLSKADYEKHKVYACEVTHQGLSSPVTKSFNRGE[human IgG1 Fc with changes not spelt out]
chain 2: REGPELSPDDPAGLLDLRQGMFAQLVAQNVLLIDGPLSWYSDPGLAGVSLTGGLSYKEDTKELVVAKAGVYYVFFQLELRRVVAGEGSGSVSLALHLQPLRSAAGAAALALTVDLPPASSEARNSAFGFQGRLLHLSAGQRLGVHLHTEARARHAWQLTQGATVLGLFRVTPEIPAGLGGGGSGGGGSASTKGPSVFPLAPSSKSTSGGTAALGCLVEDYFPEPVTVSWNSGALTSGVHTFPAVLQSSGLYSLSSVVTVPSSSLGTQTYICNVNHKPSNTKVDEKVEPKSC
heavy: EVQLLESGGGLVQPGGSLRLSCAASGFTFTDYYMNWVRQAPGKGLEWLGFIGNKANAYTTEYSASVKGRFTISRDKSKNTLYLQMNSLRAEDTATYYCTRDRGIRFQFDYWGQGTTVTVSSASTKGPSVFPLAPSSKSTSGGTAALGCLVKDYFPEPVTVSWNSGALTSGVHTFPAVLQSSGLYSLSSVVTVPSSSLGTQTYICNVNHKPSNTKVDKKVEPKSCDKTHTCPPCPAPEAAGGPSVFLFPPKPKDTLMISRTPEVTCVVVDVSHEDPEVKFNWYVDGVEVHNAKTKPREEQYNSTYRVVSVLTVLHQDWLNGKEYKCKVSNKALGAPIEKTISKAKGQPREPQVCTLPPSRDELTKNQVSLSCAVKGFYPSDIAVEWESNGQPENNYKTTPPVLDSDGSFFLVSKLTVDKSRWQQGNVFSCSVMHEALHNHYTQKSLSLSP
light: EIVLTQSPATLSLSPGERATLSCRASSSVTYIHWYQQKPGQAPRSWIYATSNLASGIPARFSGSGSGTDFTLTISSLEPEDFAVYYCQHWSSKSPTFGQGTKLEIKRTVAAPSVFIFPPSDEQLKSGTASVVCLLNNFYPREAKVQWKVDNALQSGNSQESVTEQDSKDSTYSLSSTLTLSKADYEKHKVYACEVTHQGLSSPVTKSFNRGEC
notes: split trimeric 4-1BBL Fc (kih) P329G LALA with one anti-CEA Fab; also called CEA (aff. mat. A5H1EL1D P005.102)-4-1BBL
As to B1, the EC50 in [1] turned out to be 43.4 nM; in experiment [5], 40.9 nM; in experiment [7] it was 79.5 nM. Further, the binding result with hu N(A2-B2)A-avi-His is given as “binds”. In [2], the “AUC of activation curve, Jurkat-hu4-1BB-NFκB-luc2 with CHO-k1-human CEACAM5 clone 11” value came to 152000. Moreover, the “AUC of activation curve, Jurkat-hu4-1BB-NFκB-luc2 with CHO-k1-human CEACAM5 clone 12” value in experiment [2] was determined as 131000. Besides, the “AUC of activation curve, Jurkat-hu4-1BB-NFκB-luc2, no CEA+ cells” value in [3] was determined as 2510. Moreover, the “AUC of activation curve, Jurkat-hu4-1BB-NFκB-luc2 with CHO-k1-cyno CEACAM5 clone 8” value in experiment [4] is 88800. Further, the AUC was 3180 in experiment [6], 2770 in [8] and 8990 in experiment [9]. In [10], the “EC50, NFκB-luciferase in Jurkat-hu4-1BB-NFκB-luc2 with CHO-k1-human CEACAM5 clone 11” value was 0.1 nM. In addition, the “EC50, NFκB-luciferase in Jurkat-hu4-1BB-NFκB-luc2 with CHO-k1-human CEACAM5 clone 12” value in [10] came to 0.08 nM. Also, the “EC50, NFκB-luciferase in Jurkat-hu4-1BB-NFκB-luc2 with CHO-k1-cyno CEACAM5 clone 8” value in [11] was found to be 0.12 nM.
